# The supplement of paper PMC4604168 (melanoma cell lines)
# The other results are listed elsewhere or left out. Single values are uncertain, as repeats are few or missing.
# Key:
# Test in all cases: cell count relative to DMSO control; melanoma cells; higher = more viable cells
# Conditions in all cases: library dose: low library concentration; 72 h
# [1] = test system: MZ2-MEL
# [2] = test system: MeWo
# [3] = test system: RPMI7951
# [4] = test system: RVH-421
# [5] = test system: SkMel28
# [6] = test system: SkMel30
# [7] = test system: SkMel5
# [8] = test system: UACC257
# [9] = test system: UACC62
# [10] = test system: SkMel2
# 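Further: cell number obtained by counting DAPI-stained nuclei in high-throughput microscope images with image analysis software, screen run in 1,536-well plates.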
structure (smiles),measurement,setting,value
"COc1cc2ncnc(Nc3ccc(Oc4ccccc4)cc3)c2cc1OC + C/C(O)=C(\C#N)C(=O)Nc1cc(Br)ccc1Br [LFM-A13] (first compound 2 µM, partner dose 2 µM)",cell count,[1],91.5%
same,cell count,[2],97%
same,cell count,[3],97.2%
same,cell count,[4],123%
same,cell count,[5],87.9%
same,cell count,[6],118%
same,cell count,[7],94.1%
same,cell count,[8],98.5%
same,cell count,[9],103%
"Cc1nc(Nc2ncc(C(=O)Nc3c(C)cccc3Cl)s2)cc(N2CCN(CCO)CC2)n1 [dasatanib] + O=C(Oc1ccc([N+](=O)[O-])cc1)N1CCC(C(O)(c2ccc3c(c2)OCO3)c2ccc3c(c2)OCO3)CC1 [JZL184] (first compound 0.004 µM, partner dose 1 µM)",cell count,[2],85.9%
same,cell count,[3],76.9%
same,cell count,[4],92.2%
same,cell count,[5],79.8%
same,cell count,[6],92.1%
same,cell count,[7],85.9%
same,cell count,[8],70.8%
same,cell count,[9],78.6%
"O=C(CCCCCCC(=O)Nc1ccccc1)NO [vorinostat] + C/C(O)=C(\C#N)C(=O)Nc1cc(Br)ccc1Br [LFM-A13] (first compound 0.08 µM, partner dose 2 µM)",cell count,[1],94%
same,cell count,[2],93.6%
same,cell count,[3],102%
same,cell count,[4],108%
same,cell count,[5],85.5%
same,cell count,[6],102%
same,cell count,[7],95.3%
same,cell count,[8],98.3%
same,cell count,[9],75.5%
"C#Cc1cccc(Nc2ncnc3cc(OCCOC)c(OCCOC)cc23)c1 [erlotinib] + Cc1cc(SCc2sc(-c3ccc(C(F)(F)F)c(F)c3)nc2C)ccc1OCC(=O)O [GW0742] (first compound 0.8 µM, partner dose 2 µM)",cell count,[2],97.9%
same,cell count,[3],94.5%
same,cell count,[4],81.1%
same,cell count,[5],86.1%
same,cell count,[6],105%
same,cell count,[7],98.3%
same,cell count,[8],107%
same,cell count,[9],96.5%
"C[C@@H]1CCN(C(=O)CC#N)C[C@@H]1N(C)c1ncnc2[nH]ccc12 + O=C(Oc1ccc([N+](=O)[O-])cc1)N1CCC(C(O)(c2ccc3c(c2)OCO3)c2ccc3c(c2)OCO3)CC1 [JZL184] (first compound 1 µM, partner dose 1 µM)",cell count,[2],106%
same,cell count,[3],102%
same,cell count,[4],94.1%
same,cell count,[5],106%
same,cell count,[6],93%
same,cell count,[7],93.4%
same,cell count,[8],87.5%
same,cell count,[9],83.1%
"Cc1cc(Nc2cc(N3CCN(C)CC3)nc(Sc3ccc(NC(=O)C4CC4)cc3)n2)n[nH]1 [Tozasertib] + C[C@]12O[C@H](C[C@]1(O)CO)n1c3ccccc3c3c4c(c5c6ccccc6n2c5c31)CNC4=O [Lestaurtinib] (first compound 0.006 µM, partner dose 0.004 µM)",cell count,[1],103%
same,cell count,[2],80.2%
same,cell count,[3],106%
same,cell count,[4],108%
same,cell count,[5],78.5%
same,cell count,[6],82.2%
same,cell count,[9],82.2%
"Cc1nc(Nc2ncc(C(=O)Nc3c(C)cccc3Cl)s2)cc(N2CCN(CCO)CC2)n1 [dasatanib] + C/C(O)=C(\C#N)C(=O)Nc1cc(Br)ccc1Br [LFM-A13] (first compound 0.004 µM, partner dose 2 µM)",cell count,[1],77%
same,cell count,[2],89.5%
same,cell count,[3],68.7%
same,cell count,[4],90.6%
same,cell count,[5],73.7%
same,cell count,[6],87.3%
same,cell count,[7],88.2%
same,cell count,[8],83.9%
same,cell count,[9],80.9%
"Cn1c(Nc2ccc(C(F)(F)F)cc2)nc2cc(Oc3ccnc(-c4ncc(C(F)(F)F)[nH]4)c3)ccc21 + O=C(Oc1ccc([N+](=O)[O-])cc1)N1CCC(C(O)(c2ccc3c(c2)OCO3)c2ccc3c(c2)OCO3)CC1 [JZL184] (first compound 0.08 µM, partner dose 1 µM)",cell count,[2],68.9%
same,cell count,[3],62.7%
same,cell count,[4],69.2%
same,cell count,[5],57.2%
same,cell count,[6],52.8%
same,cell count,[7],69.7%
same,cell count,[8],37.3%
same,cell count,[9],50.7%
"Clc1ccc(Nc2nnc(Cc3ccncc3)c3ccccc23)cc1 [vatalanib] + Cc1cc(SCc2sc(-c3ccc(C(F)(F)F)c(F)c3)nc2C)ccc1OCC(=O)O [GW0742] (first compound 2 µM, partner dose 2 µM)",cell count,[2],93.8%
same,cell count,[3],106%
same,cell count,[4],110%
same,cell count,[5],98.5%
same,cell count,[10],106%
same,cell count,[6],96.2%
same,cell count,[7],102%
same,cell count,[8],84.1%
same,cell count,[9],93.6%
"COc1ccc(COc2ccc(Cc3cnc(N)nc3N)cc2OC)cc1 + C/C(O)=C(\C#N)C(=O)Nc1cc(Br)ccc1Br [LFM-A13] (first compound 1 µM, partner dose 2 µM)",cell count,[1],106%
same,cell count,[2],102%
same,cell count,[3],100%
same,cell count,[4],104%
same,cell count,[5],86.3%
same,cell count,[6],92.8%
same,cell count,[7],98.7%
same,cell count,[8],94.6%
same,cell count,[9],111%
"Cn1c(Nc2ccc(C(F)(F)F)cc2)nc2cc(Oc3ccnc(-c4ncc(C(F)(F)F)[nH]4)c3)ccc21 + Cc1cc(SCc2sc(-c3ccc(C(F)(F)F)c(F)c3)nc2C)ccc1OCC(=O)O [GW0742] (first compound 0.08 µM, partner dose 2 µM)",cell count,[1],67.7%
same,cell count,[2],44.2%
same,cell count,[3],55.4%
same,cell count,[4],59.6%
same,cell count,[5],67.8%
same,cell count,[6],58%
same,cell count,[7],149%
same,cell count,[8],37%
same,cell count,[9],55.7%
"Cc1nc(Nc2ncc(C(=O)Nc3c(C)cccc3Cl)s2)cc(N2CCN(CCO)CC2)n1 [dasatanib] + Cc1cc(SCc2sc(-c3ccc(C(F)(F)F)c(F)c3)nc2C)ccc1OCC(=O)O [GW0742] (first compound 0.004 µM, partner dose 2 µM)",cell count,[1],72.8%
same,cell count,[2],105%
same,cell count,[3],56.8%
same,cell count,[4],81.7%
same,cell count,[5],74.2%
same,cell count,[6],105%
same,cell count,[7],83.7%
same,cell count,[8],64.6%
same,cell count,[9],90.7%
